This test addresses T1, SARS-CoV-2 nucleocapsid protein (SARS-CoV-2).
T1 construct: SARS-CoV-2 nucleocapsid (N) protein, 419 amino acids, 46 kDa; commercially available recombinant protein (GenScript); the UniProt code is printed for the in silico modelling; Amine-coupled to the SPR chip; also called N protein; NCP
Briefly: SPR; Reichert 2SPR SR7500DC; N protein amine-coupled (EDC/NHS) on a carboxymethyl dextran chip (~5000 uRIU); TDP-43 proteins or GST injected as analytes at 35 uL/min, 2 min, 3 min dissociation, 22 °C; 10 mM Hepes pH 7.5, 150 mM NaCl, 0.1% Tween-20; steady-state analysis. The settings on record: both partners purified.

The record followed here is paper PMC11354357, “Phase Separation of SARS-CoV-2 Nucleocapsid Protein with TDP-43 Is Dependent on C-Terminus Domains” (International Journal of Molecular Sciences, 2024).

B1: N-terminus TDP-43 (TDP-43 […]) (domain or fragment)
chain: not shown
notes: the UniProt code is printed for the in silico modelling; also called N-terminus domain containing both the RRM1 and RRM2 domains; source: purified by the authors' lab as previously published [94]
On to B1, for which the Kd is above 167 µM.
